Experimental data reported in paper PMC4336329 (PLoS ONE, 2015).
Hit rate of the full screen: of about 310,000 compounds, about 2,200 (0.71%) showed an effect of 50% or more. Effects have a minus sign here. The list shows a part of the results.

Target: human ether-à-go-go-related gene (hERG) potassium channel (human, UniProt Q12809)
Experiment: primary screen, population patch clamp on CHO cells stably expressing hERG

Chain of human ether-à-go-go-related gene (hERG) potassium channel (Q12809 whole entry, looked up): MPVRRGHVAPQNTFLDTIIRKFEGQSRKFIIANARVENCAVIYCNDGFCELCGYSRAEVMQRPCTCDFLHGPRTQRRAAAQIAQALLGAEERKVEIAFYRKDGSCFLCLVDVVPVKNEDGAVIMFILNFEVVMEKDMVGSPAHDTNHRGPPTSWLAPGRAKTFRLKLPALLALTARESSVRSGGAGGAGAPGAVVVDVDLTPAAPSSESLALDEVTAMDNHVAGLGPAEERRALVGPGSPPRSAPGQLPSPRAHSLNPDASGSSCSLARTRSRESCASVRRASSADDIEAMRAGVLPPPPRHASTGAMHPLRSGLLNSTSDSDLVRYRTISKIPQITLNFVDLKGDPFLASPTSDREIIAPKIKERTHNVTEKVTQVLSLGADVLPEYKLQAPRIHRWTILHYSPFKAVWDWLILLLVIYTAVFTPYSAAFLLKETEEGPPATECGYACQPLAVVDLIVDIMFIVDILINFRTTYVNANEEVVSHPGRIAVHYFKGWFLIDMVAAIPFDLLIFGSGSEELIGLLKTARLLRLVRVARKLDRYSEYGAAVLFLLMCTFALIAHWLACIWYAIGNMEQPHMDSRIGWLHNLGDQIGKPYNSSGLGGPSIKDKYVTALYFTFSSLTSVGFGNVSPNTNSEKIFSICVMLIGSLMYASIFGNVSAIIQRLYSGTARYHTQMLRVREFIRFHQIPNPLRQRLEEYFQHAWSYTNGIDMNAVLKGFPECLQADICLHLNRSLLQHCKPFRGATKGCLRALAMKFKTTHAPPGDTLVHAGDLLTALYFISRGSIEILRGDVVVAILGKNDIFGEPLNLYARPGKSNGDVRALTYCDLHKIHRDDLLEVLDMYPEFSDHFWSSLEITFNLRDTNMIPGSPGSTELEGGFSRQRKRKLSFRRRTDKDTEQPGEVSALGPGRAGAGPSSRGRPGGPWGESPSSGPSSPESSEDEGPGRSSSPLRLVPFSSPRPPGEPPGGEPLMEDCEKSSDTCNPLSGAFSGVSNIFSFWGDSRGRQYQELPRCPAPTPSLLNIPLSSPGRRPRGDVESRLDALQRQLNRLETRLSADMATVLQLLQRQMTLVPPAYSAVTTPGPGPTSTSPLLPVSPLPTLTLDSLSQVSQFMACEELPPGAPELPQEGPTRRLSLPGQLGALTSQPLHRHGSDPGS

| SMILES | hERG current change (%, negative = inhibition) at 1uM [%] |
| --- | --- |
| CC1=NN(c2ccc(Cl)c(C(=O)O)c2)C(=O)C1 | 2.42 |
| Cc1ccc(S(=O)(=O)N2CCN(C(=O)c3ccc4nc[nH]c4c3)CC2)cc1 | 1.68 |
| Cc1ccc(C(=O)NCC(=O)OCC(=O)c2cc(C)n(Cc3ccco3)c2C)cc1 | 11.7 |
| CC1COc2ccccc2N1C(=O)c1ccc(Cl)cc1 (centres unmarked) | 14.5 |
| O=c1c2ccccc2nc(SCc2nc3ccccc3s2)n1CCCO | 11.9 |
| Cc1ccc(S(=O)(=O)N(C)c2ccccc2)cc1 | 0.592 |
| C/C(Cl)=C/Cn1c(SCCN2CCOCC2)nc2c1c(=O)[nH]c(=O)n2C | -22.9 |
| O=C(CSc1ncc(C(F)(F)F)cc1Cl)N1CCN(S(=O)(=O)c2ccccc2)CC1 | -2.49 |
| CCn1c(CNC(=O)c2cccnc2)cc2ccccc21 | 13.1 |
| CCc1ccc(-c2nc(CN3CCC(C(=O)N4CCN(c5ccccn5)CC4)CC3)c(C)o2)cc1 | -21.8 |
| O=C1CCCCCCC1Sc1ccccc1[N+](=O)[O-] (centres unmarked) | 3.82 |
| Cc1ccc(-n2c(SCC(N)=O)nc(O)cc2=O)cc1 | 5.34 |
| c1ccc(-c2nc3cc4ccccc4cc3[nH]2)nc1 | 14.5 |
| CC(=O)c1cccc(CN2CCCC(CCC(=O)NCc3ccccc3F)C2)c1 (centres unmarked) | -12.4 |
| N#CC1=C(S)N(c2ccccc2)C(c2ccco2)NC1=O (centres unmarked) | 13.7 |
| O=C(CSc1nc2c(c(=O)n1-c1ccc(Br)cc1)SCC2)NCC1CCCO1 (centres unmarked) | -21.7 |
| O=C(COC(=O)c1ccccc1Br)Nc1ccc2[nH]c(=O)[nH]c2c1 | 3.66 |
| Cc1sc2ncnc(N3CCC(C(=O)Nc4ccc(C#N)c(Cl)c4)CC3)c2c1C | -1.88 |
| COCCn1cnc2c1c(=O)n(Cc1cc(C(C)=O)ccc1OC)c(=O)n2Cc1ccccc1 | -0.766 |

| SMILES | hERG current change (%, negative = inhibition) at 1uM [%] |
| --- | --- |
| C=CCN(CC=C)CC(=O)Nc1ccc(S(N)(=O)=O)cc1 | 7.31 |
| COc1ccccc1-n1c(O)c(C=NC2CC2)c(=O)[nH]c1=O | -6.58 |
| Cc1nn(CCC(=O)NNC(=S)Nc2ccc([N+](=O)[O-])cc2)c(C)c1[N+](=O)[O-] | -18.1 |
| CN(C)/C=N/C(=S)Nc1ccc(Cl)c(Cl)c1 | 8.75 |
| COc1ccccc1CCNC(=O)C1CCC(=O)N(C2CCCCCC2)C1 (centres unmarked) | 9.92 |
| CCOc1ccccc1OCC(=O)Oc1ccc(C)c(C)c1 | 10.8 |
| O=C1Cc2cc(S(=O)(=O)Nc3cccc([N+](=O)[O-])c3)cc3c2N1CCC3 | 14.3 |
| N#CCc1ccc(Oc2ncc(C(F)(F)F)cc2Cl)cc1 | 9.72 |
| CC(C)COC(=O)c1ccc(N2C(=O)c3ccccc3C2=O)cc1 | 12.4 |
| O=C(Nc1cnn(Cc2ccc(Cl)cc2)c1)c1ccc([N+](=O)[O-])cc1 | 0.172 |
| CC(C)C(=O)Nc1cccc(C(=O)N2CCCCC2C)c1 (centres unmarked) | 4.83 |
| COCP(=O)(c1ccccc1)c1ccccc1 | 4.19 |
| COCCCNC(=O)c1ccc2c(=O)n(Cc3ccc4c(c3)OCO4)c(=S)[nH]c2c1 | 12.4 |
| O=C(OCCCN=C1NS(=O)(=O)c2ccccc21)c1cccs1 | 7.56 |
| CC1(C)CC(=O)C2=C(C1)NC(Nc1nc3ccccc3o1)=NC21CCCCC1 | 7.89 |
| COc1ccc(-c2nc3nc(C)cc(=O)n3[nH]2)cc1 | 15.7 |
| CCN(c1c(C)n(C)n(-c2ccccc2)c1=O)S(C)(=O)=O | 20.7 |
| Cc1ccc(/C=C/C(=O)c2ccc(O)cc2)cc1 | 14.4 |
| CCN(CC)c1ccc(/C=C2\C(=O)N(c3nnc(C)c(=O)[nH]3)N=C2C)cc1 | 6.74 |

| SMILES | hERG current change (%, negative = inhibition) at 1uM [%] |
| --- | --- |
| COc1ccc(N2CCN(C(=O)c3ccc(OCc4c(C)noc4C)c(OC)c3)CC2)cc1 | 8.14 |
| CCn1c(=S)sc2c(=O)n(CC(=O)Nc3cc(OC)ccc3OC)c(C)nc21 | 13.7 |
| Cc1nn(CC(=O)N2CCN(c3ccccc3)CC2)c(=O)c2ccccc12 | 7.83 |
| Cc1cc(C)n(C(=O)/C(C#N)=C/N(C)C)n1 | 6.8 |
| CCCNC(=O)C1CCN(S(=O)(=O)c2cccc3nonc23)CC1 | 13.3 |
| CC1CCCCC1NC(=O)COC(=O)c1ccc(S(=O)(=O)N2CCOCC2)cc1 (centres unmarked) | 11.2 |
| CCOc1ncccc1C(=O)OCc1csc(CC(=O)Nc2ccccc2C)n1 | 9.16 |
| COc1cc(C#Cc2c(-c3cncn3C)n(C)c3ccc(-c4ccc(OC)nc4)cc23)cc(OC)c1 | 11.4 |
| CCCC(=O)N/C(N)=N/c1nc(C)c2cc(C)ccc2n1 | 6.71 |
| Cc1cc(OCc2n[nH]c(=S)n2-c2ccccc2)ccc1Cl | 20.7 |
| CCOC(=O)C1=C(C)N(CCCC(=O)O)C(=O)NC1c1ccc2ccccc2c1 (centres unmarked) | 2.15 |
| Cc1ccc2c(Cn3ccnc3)cc(=O)oc2c1C | 15.6 |
| Cc1ccc2c(c1)[C@H]1[C@H](CO2)[C@H](c2ccccc2)[C@]2(C)C(=O)Nc3cc(Cl)ccc3C(=O)N12 | 16 |
| Cc1csc(N2CCc3ccccc32)n1 | -12.6 |
| COc1ccccc1N(C)S(=O)(=O)c1ccc(C(=O)OCC(=O)Nc2ccccc2F)cc1 | 15.8 |
| Cc1ccc(CNC(=O)CN(c2ccc(C)cc2)S(=O)(=O)c2c(C)nn(C)c2C)cc1 | 13.5 |
| COC(=O)c1cc(C(=O)c2ccc(Cl)cc2Cl)cn1C | -2.96 |
| O=C(NN1C(=O)c2ccccc2NC1c1ccccc1OCc1ccccc1)c1ccncc1 (centres unmarked) | 18.1 |
